The values below come from PMC5397059, “Design, synthesis and structure-activity relationship study of wollamide B; a new potential anti TB agent” (PLoS ONE, 2017).

Molecules are shown by their SMILES. Non-standard residues stand in square brackets, D forms with d. Residues, ends and D or L forms follow the SMILES beside them. dPhe(4-Cl) = N[C@H](Cc1ccc(Cl)cc1)C(=O)O; dOrn = NCCC[C@@H](N)C(=O)O Some results are limits rather than exact numbers.

The subject of the first data set is HepG2 cells. As to conditions: read-out: IC50 against Hep2G Cells; analogues.
One may read the IC50 as the concentration needed to halve the response being measured. As for `CC(C)C[C@H]1NC(=O)[C@H](C)NC(=O)[C@H](Cc2c[nH]c3ccccc23)NC(=O)[C@@H](CCCN)NC(=O)[C@H](CC(N)=O)NC(=O)[C@H](C(C)C)NC1=O` [Compound 2c] (cyclo(A[dL]VN[dOrn]W)), the IC50 is more than 100 µM. For `CC(C)C[C@@H]1NC(=O)[C@H](C)NC(=O)[C@@H](CCCN)NC(=O)[C@H](CC(N)=O)NC(=O)[C@H](C(C)C)NC(=O)[C@@H](CC(C)C)NC1=O` [Compound 3c] (cyclo(AL[dL]VN[dOrn])), the IC50 is more than 100 µM. Same read-out and setting: as for `CC(C)C[C@@H]1NC(=O)[C@H](Cc2c[nH]c3ccccc23)NC(=O)[C@@H](CCCN)NC(=O)[C@H](C)NC(=O)[C@H](C(C)C)NC(=O)[C@@H](CC(C)C)NC1=O` [Compound 4c] (cyclo(A[dOrn]WL[dL]V)), the figure is more than 100 µM. For `CC(C)C[C@@H]1NC(=O)[C@H](Cc2c[nH]c3ccccc23)NC(=O)[C@@H](CCCN)NC(=O)[C@H](CC(N)=O)NC(=O)[C@H](C)NC(=O)[C@@H](CC(C)C)NC1=O` [Compound 5c] (cyclo(AN[dOrn]WL[dL])), the IC50 was more than 100 µM. The same measure, in the same setting: to `CC(C)C[C@@H]1NC(=O)[C@H](Cc2c[nH]c3ccccc23)NC(=O)[C@@H](CCCN)NC(=O)[C@H](CC(N)=O)NC(=O)[C@H](C(C)C)NC(=O)[C@@H](C)NC1=O` [Compound 6c] (cyclo(L[dA]VN[dOrn]W)) belongs more than 100 µM; to `CC[C@H](C)[C@@H]1NC(=O)[C@@H](CC(C)C)NC(=O)[C@H](CC(C)C)NC(=O)[C@H](Cc2c[nH]c3ccccc23)NC(=O)[C@@H](CCCN)NC(=O)[C@H](CC(N)=O)NC1=O` [Compound 7c] (cyclo(IN[dOrn]WL[dL])), 50 µM. The same measure, in the same setting: as for `CC(C)C[C@@H]1NC(=O)[C@H](Cc2c[nH]c3ccccc23)NC(=O)[C@@H](CCCN)NC(=O)[C@@H](CCCN)NC(=O)[C@H](C(C)C)NC(=O)[C@@H](CC(C)C)NC1=O` [Compound 9c] (cyclo(L[dL]V[dOrn][dOrn]W)), the figure is more than 100 µM; as for `CC[C@H](C)[C@@H]1NC(=O)[C@@H](CC(C)C)NC(=O)[C@H](CC(C)C)NC(=O)[C@H](Cc2c[nH]c3ccccc23)NC(=O)[C@@H](CCCN)NC(=O)[C@H](CO)NC1=O` [Compound 10c] (cyclo(IS[dOrn]WL[dL])), more than 100 µM. In the case of `CC[C@H](C)[C@@H]1NC(=O)[C@H]([C@@H](C)CC)NC(=O)[C@@H](CC(C)C)NC(=O)[C@H](CC(C)C)NC(=O)[C@H](Cc2c[nH]c3ccccc23)NC(=O)[C@@H](CCCN)NC1=O` [Compound 12c] (cyclo(II[dOrn]WL[dL])), the IC50 was more than 100 µM. Still for that read-out and setting: as for `CC(C)C[C@@H]1NC(=O)[C@@H](Cc2ccc(Cl)cc2)NC(=O)[C@@H](CCCN)NC(=O)[C@H](CC(N)=O)NC(=O)[C@H](C(C)C)NC(=O)[C@@H](CC(C)C)NC1=O` [Compound 14c] (cyclo(L[dL]VN[dOrn][dPhe(4-Cl)])), the figure is more than 100 µM; as for `CC(C)C[C@@H]1NC(=O)[C@H](Cc2c[nH]c3ccccc23)NC(=O)[C@@H](CCCN)NC(=O)[C@H](CC(N)=O)NC(=O)[C@H](C(C)C)NC(=O)[C@@H](Cc2ccc(Cl)cc2)NC1=O` [Compound 16c] (cyclo(L[dPhe(4-Cl)]VN[dOrn]W)), 60 µM. On the same count and under the same terms, as for `CC(C)C[C@H]1NC(=O)[C@@H](Cc2ccc(Cl)cc2)NC(=O)[C@H](Cc2c[nH]c3ccccc23)NC(=O)[C@@H](CCCN)NC(=O)[C@H](CC(N)=O)NC(=O)[C@H](C(C)C)NC1=O` [Compound 17c] (cyclo(N[dOrn]W[dPhe(4-Cl)][dL]V)), the figure is more than 100 µM. In the case of `CC[C@H](C)[C@@H]1NC(=O)[C@@H](Cc2ccc(Cl)cc2)NC(=O)[C@H](CC(C)C)NC(=O)[C@H](Cc2c[nH]c3ccccc23)NC(=O)[C@@H](CCCN)NC(=O)[C@@H](CCCN)NC1=O` [Compound 18c] (cyclo(I[dOrn][dOrn]WL[dPhe(4-Cl)])), the IC50 was more than 100 µM. With `CC[C@H](C)[C@@H]1NC(=O)[C@H](Cc2c[nH]c3ccccc23)NC(=O)[C@@H](CCCN)NC(=O)[C@H](CC(N)=O)NC(=O)[C@H](C(C)C)NC(=O)[C@@H](CC(C)C)NC1=O` [Compound 19c] (cyclo(I[dL]VN[dOrn]W)), the IC50 is more than 100 µM.

`CC[C@H](C)[C@@H]1NC(=O)[C@H](CC(C)C)NC(=O)[C@H](Cc2c[nH]c3ccccc23)NC(=O)[C@@H](CCCN)NC(=O)[C@H](CC(N)=O)NC(=O)[C@H](C(C)C)NC1=O` [Compound 20c] (cyclo(IVN[dOrn]WL)): the IC50 was more than 100 µM.

Consider `CC(C)C[C@@H]1NC(=O)[C@@H](CC(C)C)NC(=O)[C@@H](CCCN)NC(=O)[C@H](CC(N)=O)NC(=O)[C@H](C(C)C)NC(=O)[C@H](Cc2c[nH]c3ccccc23)NC1=O` [Compound 21c] (cyclo(LWVN[dOrn][dL])), for which the IC50 is more than 100 µM.

Staying with this data set, now noted: up to a concentration of 50 μM.
Regarding `CC(C)C[C@@H]1NC(=O)[C@H](Cc2c[nH]c3ccccc23)NC(=O)[C@@H](CCCN)NC(=O)[C@H](CC(N)=O)NC(=O)[C@H](C(C)C)NC(=O)[C@@H](CC(C)C)NC1=O` [Compound 1c, wollamide B] (cyclo([dOrn]WL[dL]VN)), the “sign of toxicity against HepG2 cells” value is recorded as “did not show sign of toxicity”.
